According to publication PMC12136788:
The other results are listed elsewhere or left out.

T1: UNK ZnF1-3 (human, UniProt Q9C0B0 31-174)
T1 sequence: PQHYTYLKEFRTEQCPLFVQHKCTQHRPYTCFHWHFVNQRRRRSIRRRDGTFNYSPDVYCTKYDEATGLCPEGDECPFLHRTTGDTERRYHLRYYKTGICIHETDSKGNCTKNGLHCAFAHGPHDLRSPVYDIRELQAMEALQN

B1: chr17:64801638:64801639:+_ENSG00000154229_ENST00000413366|hu_mus|hu_hu_hu_mus_False|38_58 (ssRNA)
RNA: GGGAGUUCUACAGUCCGACGAUCUAUAUAUAUAUAUACAUAUGUACACAUAUAUAGUAAAACCCUAGUUAAACGUGUAAACUAGCCAUUCAUUUUUGAAAUUUUAUCUACAUUAAAAAAUUAAUAUAUCUGAUAGAGUGCCAGCAACAGAGGAUUGAGCAUCA
B2: chr19:53463844:53463845:-_ENSMUSG00000025024_ENSMUST00000025997|mus_hu|FALSE|FALSE (ssRNA)
RNA: GGGAGUUCUACAGUCCGACGAUCUCAUUUUCUCCAUUUCCAGAUAAUGCAGCUUCAACUUGCUGGAGCUGAGCUUUGUAGCUUGCCAGCUGCUUUGCUAAAUCCUCUGACAUCUCAAAGCCCGCCACAACUCGAUCAUUCGGACAACAGAGGAUUGAGCAUCA
B3: chr2:130329849:130329850:+_ENSMUSG00000027303_ENSMUST00000028769|mus_hu|FALSE|FALSE (ssRNA)
RNA: GGGAGUUCUACAGUCCGACGAUCGUCUGAAGAAUUGACAGUGGUUAAAUAGGUGGGUCCCAGAGUUAUAUUUGGGCUGAAUGUUGGUGCCACAGAAAGAGAAGUUAGUGAAGAAGUUGGAUUUGAAGUUUUGGCCUCUUCUUUCAACAGAGGAUUGAGCAUCA
B4: chr4:98674826:98674827:-_ENSMUSG00000028556_ENSMUST00000030286|mus_hu|FALSE|FALSE (ssRNA)
RNA: GGGAGUUCUACAGUCCGACGAUCGAUUCGCAUGUCCCCAAUUCGGACUGGGAACAGGUGUUCAUCCAGAGCAUUGACCAGAGCAAAAAAUUUGUCAAGAUAAGGAUCUUGUGUAUGGAUAGACGAAACAGCAACAACUUCAACCAACAGAGGAUUGAGCAUCA
B5: chr1:150203005:150203006:-_ENSG00000143401_ENST00000314136|hu_hu|FALSE|FALSE (ssRNA)
RNA: GGGAGUUCUACAGUCCGACGAUCAAGAUUUGGACAUUUCUCUGCCAGGACUUCCAAGCCUCCAGAAAUUAUAUUAUCACUAAGCUCCAAUUUUCGAAGUUUAUUUAAGCUGGGAAGCCGGGCCAGCGAACUUAGUUCCACAUUCAACAGAGGAUUGAGCAUCA
B6: 32463084_32463204_1817_3pUTR_ENSMUSG00000027668_ENSMUST00000091257|mouse|control|control (ssRNA)
RNA: GGGAGUUCUACAGUCCGACGAUCCGAGCAGCACCCUCUGUGCAUUUGUGGAACCCAGGAAUCGAUGUACAAGGGAAGACCAGCCCAGGGAAAACCGAAACACAAUGUCCUCUUGAAAAUCCGAACACAGCUUGUGGCAAUUGACAACAGAGGAUUGAGCAUCA
B7: chrX:98510588:98510589:+_ENSMUSG00000031302_ENSMUST00000065858|mus_mus|FALSE|FALSE (ssRNA)
RNA: GGGAGUUCUACAGUCCGACGAUCAUGAGACAGUGUAAGGAGACUGACACAGGAUGCACCGAUGCCAGAGCCAAAGACAGUAAUUCUACGGGGAUCUCCUCCAAAGAAGGCAAUAUUCUCACUCACCCAGCGAAGGGCCUGGAUCAACAGAGGAUUGAGCAUCA
B8: chr11:77843920:77843921:+_ENSMUSG00000037791_ENSMUST00000049167|mus_mus|FALSE|FALSE (ssRNA)
RNA: GGGAGUUCUACAGUCCGACGAUCGUUUUUAUAUACAGAAUACAGGAAAGUUUCUGUCAAGUCUAAAACAUUACAAUUACUAUGUACAUUGGUUGUGGGGAAGAGGAAGUAUCUGGGGUGAGGAGGAAGAGAAGUGGUAAGAACCAACAGAGGAUUGAGCAUCA
B9: chr1:220276048:220276049:+_ENSG00000067704_ENST00000302637|hu_hu|hu_hu_hu_mus_True|78_78 (ssRNA)
RNA: GGGAGUUCUACAGUCCGACGAUCGCAAAUUGCCUGGUUGGCGGGAAUUGUCCAAGGUUGUGUGGUCCAAACUAAAACGCUAACAGGGGAUGAGGCAUCUGUAAGAGACUCCAACUUCGGAGGAGGUCUCAGGAGGGGGAAUCUCAACAGAGGAUUGAGCAUCA
B10: chr2:198351390:198351391:-_ENSG00000144381_ENST00000345042|hu_hu|hu_hu_hu_mus_False|58_78 (ssRNA)
RNA: GGGAGUUCUACAGUCCGACGAUCUCAUUCCCACCCUCCACAGAAAGGCUGCUUCUGUUCUCAUCUGUGGUGACACAGCACUAAAAUCCUGAUGCUCACAGAACAGUAGAGAUGCCUCAGUGAUUUAAGUUGAAAGCAGGACACCAACAGAGGAUUGAGCAUCA
B11: chr5:132270174:132270175:-_ENSG00000072364_ENST00000265343|hu_mus|motif|central (ssRNA)
RNA: GGGAGUUCUACAGUCCGACGAUCAGAAUCCCAGUUGGCAUCAGGGUCCCGAGGUGAUUUGGAGCGCUGAUGUUCCUUGCGGUGGUGAUCAUUCCCAUGAGACCUGGAAUGACUAGAACUUAAUGAAGAAACAGCCUGGGGUUUCAACAGAGGAUUGAGCAUCA
B12: chr7:118225073:118225074:-_ENSMUSG00000005610_ENSMUST00000162415|mus_mus|FALSE|FALSE (ssRNA)
RNA: GGGAGUUCUACAGUCCGACGAUCGCACUGAAACGAGAAGCACCCCCUUCUGCAAUCGCACUCUCCACUUUGGCGGCUUGACAACGAAGAAUCUUCAAAAGAAUAAUAUUAAUGGAUGGGGUGGGGAGGGGAGGGGAUGGUAGACAACAGAGGAUUGAGCAUCA
B13: chr2:152658766:152658767:-_ENSG00000162980_ENST00000295087|hu_mus|FALSE|FALSE (ssRNA)
RNA: GGGAGUUCUACAGUCCGACGAUCAUUCUUAAAUUCAUUUUAACUGUUUGUCAUGUAAUUUAAUACCUAAAAAGGUUGCAGCUAAAUUAAUUACUACUAUUUAUAGGAUGUUACCUCUUUGGGUAGAUAUAUUUCACACCAUGACAACAGAGGAUUGAGCAUCA
B14: chr9:58050066:58050067:-_ENSMUSG00000051243_ENSMUST00000163897|mus_mus|motif|central (ssRNA)
RNA: GGGAGUUCUACAGUCCGACGAUCGGGACCUGCUGAACUGCGCUGCCUGGCUCUCCCGGACCCUUUUCCUCCUGCCGCCUGCGGGCCUCCCCCUCCCCGAAGCUUCGUUCAACACGAUGCAUAAUUGAUAGUGUUAGCAGAACGCAACAGAGGAUUGAGCAUCA

The binders below were run against T1, UNK ZnF1-3 (assay: nsRBNS (natural sequence RNA bind-n-seq); RBNS binding buffer (assumed for nsRBNS): 25 mM Tris pH 7.5, 150 mM KCl, 3 mM MgCl2, 0.01% Triton X-100, 500 ug/ml BSA, 20 U/ml SUPERase-In, 4 C; UNK is unkempt and MSI1 is Musashi-1; names of the RNAs are library labels; protein concentration not given here; high values mean tight binding).

| Binder | binding signal |
| --- | --- |
| B1 | 1.17 enrichment R |
| B2 | 0.661 enrichment R |
| B3 | 1.49 enrichment R |
| B4 | 1.33 enrichment R |
| B5 | 0.675 enrichment R |
| B6 | 1.46 enrichment R |
| B7 | 1.21 enrichment R |
| B8 | 1.58 enrichment R |
| B9 | 1.73 enrichment R |
| B10 | 1.22 enrichment R |
| B11 | 1.05 enrichment R |
| B12 | 2.8 enrichment R |
| B13 | 0.748 enrichment R |
| B14 | 1.07 enrichment R |
